Measurements as given in article PMC7819943, “Rice protein-binding microarrays: a tool to detect cis-acting elements near promoter regions in rice”.
The list shows a part of the results.

Molecular target: T1, OsWOX13 (Oryza sativa, UniProt Q5QMM3 1-267)
T1 sequence: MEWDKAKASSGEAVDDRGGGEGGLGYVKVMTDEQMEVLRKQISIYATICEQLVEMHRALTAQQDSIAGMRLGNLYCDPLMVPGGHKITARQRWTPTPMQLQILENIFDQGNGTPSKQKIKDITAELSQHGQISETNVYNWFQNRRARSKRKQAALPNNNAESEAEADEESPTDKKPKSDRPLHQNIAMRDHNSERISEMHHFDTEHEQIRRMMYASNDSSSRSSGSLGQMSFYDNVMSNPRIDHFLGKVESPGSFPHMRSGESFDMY
Test: protein-binding microarray (RPBM); PBS, 2% BSA, 51.3 ng/ul salmon testes DNA, 50 uM zinc acetate, 200 nM TF, 25 C, 1 h; high values mean tight binding
Conditions: protein: recombinant; tags: N-terminal polyhistidine and DsRed monomer fusion (pET32a); label: CyDye5-dUTP incorporated in the synthesized complementary strand; 3' TTTTT single-stranded linker to array surface; dsDNA, one strand shown
Outline: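 The binding signal is fluorescence intensity per feature, in arbitrary units, read on an Axon 4000B scanner. Polyhistidine- and DsRed-tagged transcription factors (N-terminal fusions) from E. coli BL21-CodonPlus were purified on Ni–NTA and applied at 200 nM for 1 h at 25 °C to a double-stranded, BSA-blocked custom Agilent array in buffer with 50 µM zinc acetate.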

| Sequence | binding signal |
| --- | --- |
| CTTAACTTATGTTTTCTTGTTCTTGCTTCCTTGTCAGTAACGGAGTCACCTAGTGCAG | 3330 fluorescence intensity (a.u.) |
| GTAATGATAATATTGATTCCTAGTAGTTTATATTACTGATCGGAGTCACCTAGTGCAG | 5870 fluorescence intensity (a.u.) |
| ATAGATTGAATAATCACAGAACATGTGTACATATAGACATCGGAGTCACCTAGTGCAG | 43000 fluorescence intensity (a.u.) |
| CCTAAACAGGACCTAAACAAATTCCTAACTACTCTAGCTACGGAGTCACCTAGTGCAG | 17700 fluorescence intensity (a.u.) |
| ATAATAATTAATCAATTCATTATGCACTAATGATTACCGCCGGAGTCACCTAGTGCAG | 41700 fluorescence intensity (a.u.) |
| GAACAAATTATAGTTATCAAATGAACAAATCCATGTATATCGGAGTCACCTAGTGCAG | 8230 fluorescence intensity (a.u.) |
| GTTCAATTTTGTCATAATCGGCTGCTTCTTCGCTTCAATTCGGAGTCACCTAGTGCAG | 3780 fluorescence intensity (a.u.) |
| TAATCTAATCATCGGCCAATATAACTGCACAATGAATCCACGGAGTCACCTAGTGCAG | 7130 fluorescence intensity (a.u.) |
| CGATCGTTTAATTAATTAGTAATTACACACTCGATCGTCCCGGAGTCACCTAGTGCAG | 35500 fluorescence intensity (a.u.) |
| AAGTTAAATTGACAATCCTACCTGCTCGTCAAATTTCAACCGGAGTCACCTAGTGCAG | 27500 fluorescence intensity (a.u.) |
| CATGGAAATTGGCCTTTTGATATATTAATTGGTAGCGATCCGGAGTCACCTAGTGCAG | 22900 fluorescence intensity (a.u.) |
| CTGACTGGCACGCCCGTATCTCATCAACCTTTGGACCTGCCGGAGTCACCTAGTGCAG | 3810 fluorescence intensity (a.u.) |
| TAGCCTTTGATAGACATAAAGATTCGTGCAACATTATCGGCGGAGTCACCTAGTGCAG | 11700 fluorescence intensity (a.u.) |
| GATAAATTAACCGGCAGTGGTACGACACAATGGATAGCCCCGGAGTCACCTAGTGCAG | 21100 fluorescence intensity (a.u.) |
| CTATTGACAAAACGAAACTGTTGACTTGTGAGAAAGCGTCCGGAGTCACCTAGTGCAG | 7580 fluorescence intensity (a.u.) |
| ATAATATTTAATATTTAATTAATTATGTGCTAATAAATCGCGGAGTCACCTAGTGCAG | 14300 fluorescence intensity (a.u.) |
| TTATTATAAATTATCTTATCAATAAAGAAACTAACTTATACGGAGTCACCTAGTGCAG | 4710 fluorescence intensity (a.u.) |
| GTAATTTGTTTTGTTATTAGTCTACGTTTAATACTTCAAGCGGAGTCACCTAGTGCAG | 3250 fluorescence intensity (a.u.) |
| CGTAACGGAATTAATACTACTTAGAAATCTCACCATTTCGCGGAGTCACCTAGTGCAG | 7740 fluorescence intensity (a.u.) |
| CTTCGCTAAAATAGATTAATTCCCGGGCAGTGTGTATGCTCGGAGTCACCTAGTGCAG | 4480 fluorescence intensity (a.u.) |
| GCCATAAAGGAAAACTCAATTAATTATCTAAAGTGTCAAGCGGAGTCACCTAGTGCAG | 4740 fluorescence intensity (a.u.) |

| Sequence | binding signal |
| --- | --- |
| ATTAGGTATGATTTAAATTAAAAGAAGAGTTTATGTGAGACGGAGTCACCTAGTGCAG | 5080 fluorescence intensity (a.u.) |
| TGAAATTTTATGCAATCATTGGGACACCATTAAATTTCATCGGAGTCACCTAGTGCAG | 24900 fluorescence intensity (a.u.) |
| ATAATTTGTTCAACATAGCTTCATGCCTTCTCAGCTTCTCCGGAGTCACCTAGTGCAG | 3200 fluorescence intensity (a.u.) |
| GGGGTAATTACAGTAAAACTAACATTTAATTATTGCAATACGGAGTCACCTAGTGCAG | 30700 fluorescence intensity (a.u.) |
| TCCTAATTAGCTCCTAGCTAGCTAGCTTTATATACCAAATCGGAGTCACCTAGTGCAG | 23800 fluorescence intensity (a.u.) |
| ACTGATAGACTGACATCCTGTCATCAACGAAGACACGGGCCGGAGTCACCTAGTGCAG | 47700 fluorescence intensity (a.u.) |
| CGGAGATGATTTTGTTAAAGTTGTGCAACGTCTTGTTATGCGGAGTCACCTAGTGCAG | 16600 fluorescence intensity (a.u.) |
| TAGAGAAGATTGGAAAGATACGCAAAACAAGGTGAGGTATCGGAGTCACCTAGTGCAG | 14700 fluorescence intensity (a.u.) |
| AAGTTGTGATTAAGTTACTGTAGATAATAAAGTAAGTCACCGGAGTCACCTAGTGCAG | 5840 fluorescence intensity (a.u.) |
| TAAATAATTGATAAAATTGTTTCTGGTTCTATAGCACCAACGGAGTCACCTAGTGCAG | 40300 fluorescence intensity (a.u.) |
| ATCCAGTCTAATTATAACTGCCATGTAGATATGGGTATCCCGGAGTCACCTAGTGCAG | 24600 fluorescence intensity (a.u.) |
| ATATCCAATTATTGGACTCCATGACAGCATGCACCGATCGCGGAGTCACCTAGTGCAG | 22100 fluorescence intensity (a.u.) |
| ATAAATATTTAATGCAGTTGATTTTGATCATAAAGCTTGACGGAGTCACCTAGTGCAG | 4530 fluorescence intensity (a.u.) |
| ATTCGTGGATGTATTACTAATTAATTAGTGCAGGACTTAGCGGAGTCACCTAGTGCAG | 11000 fluorescence intensity (a.u.) |
| CAGTACTGATTAAGCATTCTTTCAATTCGTCTGTTCCCCACGGAGTCACCTAGTGCAG | 11000 fluorescence intensity (a.u.) |
| AAGAAAATTACAAGATGTAACACTCAAAATTGTCACGGTCCGGAGTCACCTAGTGCAG | 3570 fluorescence intensity (a.u.) |
| GATTGAAAATTTAAATTTTAGCTGGTAAGCATAAGCATATCGGAGTCACCTAGTGCAG | 4520 fluorescence intensity (a.u.) |
| CCTCTCTAAGATGATGGGATTGACAAGCAGACCCCGTATTCGGAGTCACCTAGTGCAG | 8670 fluorescence intensity (a.u.) |
| TCTAAATTAGGCTTACCAATATTTGGTAATTTCAATAGTGCGGAGTCACCTAGTGCAG | 18500 fluorescence intensity (a.u.) |
| AATAATTAAACATTAAACACGAAAATTCACGACTGTATTTCGGAGTCACCTAGTGCAG | 20000 fluorescence intensity (a.u.) |
| AAAATAATTTGGTGAATTGAAGACTAGAACCCATGATCTCCGGAGTCACCTAGTGCAG | 9840 fluorescence intensity (a.u.) |
